In PubChem BioAssay (NCATS):
Inconclusive means that the source gave no clear call. Such entries were picked first, then a sample of the others. For part of these data: No potency is given beside an inconclusive call; the fits are too rough. Active and inactive are the calls of the source. Unless noted, calls follow the shape of the dose curve; as a rule, active = well fitted curve in the direction sought with a large enough effect; inconclusive = small, poorly fitted or top-dose-only effect, or another doubt; inactive = no such curve, though single readings can be large; an effect the other way counts as inactive or inconclusive.

Tests used:
[1] = molecular target: Luciferin 4-monooxygenase (Photinus pyralis) (UniProt P08659); assay: Biochemical firefly luciferase enzyme assay for NPC (AID 624030); also: potency is read from the fitted curve at half-maximal effect; nearly all actives have a fitted effect of over 70% in size
Chain of UniProt P08659 (P08659 whole entry, looked up): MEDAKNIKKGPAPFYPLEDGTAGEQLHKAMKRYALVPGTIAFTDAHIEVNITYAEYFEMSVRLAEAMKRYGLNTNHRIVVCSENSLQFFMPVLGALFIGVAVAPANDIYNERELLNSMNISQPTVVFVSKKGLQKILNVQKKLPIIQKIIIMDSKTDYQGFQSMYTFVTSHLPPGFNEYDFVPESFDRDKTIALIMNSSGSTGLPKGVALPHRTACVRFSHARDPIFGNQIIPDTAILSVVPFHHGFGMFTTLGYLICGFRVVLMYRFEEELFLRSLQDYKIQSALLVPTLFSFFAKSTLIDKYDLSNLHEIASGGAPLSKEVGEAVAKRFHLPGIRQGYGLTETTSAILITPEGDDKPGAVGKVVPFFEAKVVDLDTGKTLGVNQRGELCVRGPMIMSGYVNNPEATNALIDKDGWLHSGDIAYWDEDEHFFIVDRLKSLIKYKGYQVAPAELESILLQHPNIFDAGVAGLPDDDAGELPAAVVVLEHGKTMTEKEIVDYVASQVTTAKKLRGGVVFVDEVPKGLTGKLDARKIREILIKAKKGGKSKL
Outline: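 Purified P. pyralis luciferase at 10 nM in 50 mM Tris Acetate (final), luminescence read within 5 minutes of enzyme addition to compounds. Activity normalised to PTC124 versus DMSO; concentration-response curves classed by r2, magnitude and activity.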

[2] = qHTS assay for small molecule agonists of the antioxidant response element (ARE) signaling pathway (AID 651741; active = well fitted activation curve with a large enough effect in the signal ratio; inconclusive = small, poorly fitted or top-dose-only effect, or effect the other way, or a change in a side signal; the % refers to the signal ratio; also: potency is read from the fitted curve at half-maximal effect); details: HepG2 ARE-bla reporter, beta-lactamase FRET ratio, 16 h; activation: at 96 µM (top of the series)
Outline: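 CellSensor ARE-bla HepG2 cells (2,000/well) carrying ARE-driven beta-lactamase, exposed 16 h at 37 C. LiveBLAzer B/G FRET substrate added for 2 h at room temperature; fluorescence intensity read.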

[3] = S16 Schwann cell viability assay (CellTiter-Glo assay) (AID 624031);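 also: native untransfected S16 rat Schwann cells; cellular ATP luminescence as a viability measure; potency is read from the fitted curve at half-maximal effect; nearly all actives have a fitted effect of over 70% in size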
Outline: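 Parental S16 cells, 24 h compound, 37 °C. ATP-luminescence viability; DMSO = 0% activity, empty wells as reference; curves classified by fit quality and efficacy.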

[4] = S16 Schwann cell PMP22 intronic element beta-lactamase assay (AID 624044; calls by dose curve; also: nearly all actives have a fitted effect of over 15% in size; also: potency is read from the fitted curve at half-maximal effect); details: S16 rat Schwann cells, PMP22 element beta-lactamase FRET, 24 h; series mostly up to 38.3 µM
Outline: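 Rat S16 Schwann cells with beta-Lac driven by a PMP22 intronic element, compound-treated 24 h at 37 °C. LiveBLAzer FRET B/G read: 460 nm normalized to potassium clavulanate vs DMSO; 535 nm FRET as viability; concentration-effect curves classified.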

[5] = S16 Schwann cell PMP22 intronic element firefly luciferase assay (AID 624032); also: nearly all actives have a fitted effect of over 30% in size; also: potency is read from the fitted curve at half-maximal effect
Outline: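 Rat S16 Schwann cells stably carrying firefly luciferase driven by a PMP22 intronic element, in 10% FBS, treated 24 h at 37 C. ONE-Glo luminescence normalized to PTC124 control and DMSO (0%); curves classed by r2, magnitude and activity.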

[6] = Cytotoxicity counterscreen for NFkB agonists and antagonists (AID 624476);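 also: cells exposed to compound for 48 hours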
[7] = Cell Proliferation Assay against the TMD8 Cell Line (Caspase readout at 16 hrs) (AID 651712)
Outline: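 TMD8 cells in RPMI with 5% FBS were treated with compound for 16 h at 37 C, then caspase 3/7 activation was read by Caspase-Glo luminescence. Percent activity was scaled to DMSO (0%) and 9.2 uM bortezomib final (100%).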

[8] = molecular target: Glutaminase kidney isoform, mitochondrial (Homo sapiens) (UniProt O94925); assay: qHTS for Inhibitors of Glutaminase (GLS): LOPAC Validation (AID 624146);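 also: glutamate product detected by oxidase and peroxidase coupled Amplex red fluorescence gain; nearly all actives have a fitted effect of over 60% in size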
Chain of UniProt O94925 (O94925 whole entry, looked up, canonical isoform): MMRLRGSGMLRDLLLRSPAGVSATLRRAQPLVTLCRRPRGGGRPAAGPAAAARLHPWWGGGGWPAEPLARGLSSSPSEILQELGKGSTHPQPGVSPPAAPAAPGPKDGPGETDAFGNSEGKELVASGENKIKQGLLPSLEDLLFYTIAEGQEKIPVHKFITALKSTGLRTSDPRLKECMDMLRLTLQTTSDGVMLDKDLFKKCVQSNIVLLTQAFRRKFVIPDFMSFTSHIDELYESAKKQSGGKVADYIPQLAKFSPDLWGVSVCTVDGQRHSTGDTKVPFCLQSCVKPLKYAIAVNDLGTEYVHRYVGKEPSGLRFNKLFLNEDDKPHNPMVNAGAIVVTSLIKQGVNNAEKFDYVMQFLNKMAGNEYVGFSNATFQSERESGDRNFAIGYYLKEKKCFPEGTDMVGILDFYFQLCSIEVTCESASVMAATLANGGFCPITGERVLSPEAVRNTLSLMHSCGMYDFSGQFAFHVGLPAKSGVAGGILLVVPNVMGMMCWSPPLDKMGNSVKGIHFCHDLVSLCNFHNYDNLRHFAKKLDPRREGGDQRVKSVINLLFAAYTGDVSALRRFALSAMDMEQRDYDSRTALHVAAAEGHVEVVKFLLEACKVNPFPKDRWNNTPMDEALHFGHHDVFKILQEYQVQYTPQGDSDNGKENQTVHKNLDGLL
Outline: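 Coupled fluorescence readout: glutamate oxidase/HRP/Amplex Red detect glutamate formed by hKGA from L-glutamine (1 mM solution added). Buffer 45 mM KH2PO4 pH 8.2, 0.02% Tween-20; reads at t0 and 30 min RT.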

[9] = HTS Assay for Allosteric Antagonists of the Human D2 Dopamine Receptor: Hit Validation in HTRF (AID 624455);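 also: stable D1 dopamine receptor cell line scored for blocking the D1 response; potency is read from the fitted curve at half-maximal effect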
Outline: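 Hit validation in cells stably expressing the D1 dopamine receptor, run in HTRF format. Compounds were tested for their ability to inhibit the D1-mediated response.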
Tags tell the direction and shape of the fitted curve.

Cc1ccc(N)cc1O
Potency [1]: inconclusive [inhibitor, partial curve] | Potency [2]: active: 42.2 µM

O=c1[nH]c2ccccc2n1CCCN1CCN(C(c2ccccc2)c2ccccc2)CC1
Potency [3]: inconclusive [cytotoxic, single point]

O=C(/C=C/c1ccccc1)NCCO
Potency [1]: inconclusive [inhibitor, partial curve, poor fit] | Potency [4]: inactive

CC(C(=O)O)c1ccc2c(c1)[nH]c1ccc(Cl)cc12 (stereo unspecified)
Potency [1]: inconclusive [inhibitor, partial curve] | Potency [5]: inactive

CC(C)c1ccc2oc3nc(N)c(C(=O)O)cc3c(=O)c2c1
Potency [1]: active: 0.405 µM | Potency [5]: inconclusive [inhibitor, full curve, poor fit]

Cc1oncc1C(=O)Nc1ccc(C(F)(F)F)cc1
Potency [1]: inconclusive [inhibitor, partial curve] | Potency [4]: inconclusive [falling, full curve, poor fit] | Potency [6]: inactive | Potency [7]: inactive

COc1ccc(/C=C/C(=O)Nc2ccccc2C(=O)O)cc1OC
Potency [1]: active: 0.181 µM | Potency [8]: inactive | Potency [9]: inconclusive [inhibitor, single point]

Cc1c(Nc2ncccc2C(=O)O)cccc1C(F)(F)F
Potency [1]: inconclusive [inhibitor, partial curve] | Potency [5]: inactive | Potency [4]: inconclusive [falling, single point]

N[C@@H](Cc1c[nH]c2ccc(O)cc12)C(=O)O
Potency [1]: inconclusive [inhibitor, partial curve] | Potency [2]: inconclusive [activator, single point]
